Test results reported in PubChem BioAssay AID760 (NMMLSC, 2007).
Among all 190,000 compounds or so, about 360 (0.19%) were called active. Inconclusive results, whose numbers are uncertain, are shown with a selection of clear calls.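 Rule for the calls: active = GTP binding activity at least 20 points away from 100%, either lowered or raised; inconclusive = signal likely due to the compound's own green fluorescence; inactive = the rest.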

Each compound was assayed against Ras-related protein Rab-2A (Canis lupus familiaris) (UniProt P61105) (assay: Rab2 wt fluorescent GTP binding changes, either direction – biochemical, dog, bead-based flow cytometry, multiplex, primary screen (AID 760;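 note: 0% = beads with excess unlabeled GTP and 100% = no-compound control corrected for plate trend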)). Details: GST-Rab2 wt beads, Bodipy-GTP binding, at 10 µM.
O=Nc1c(O)n(Cc2ccc(Cl)cc2Cl)c2ccccc12 was tested, and the GTP binding activity was inconclusive: 86%. In the case of COC(=O)c1nnn(CC(=O)Nc2ccc(C)c(F)c2)c1C(=O)OC, the GTP binding activity is reported as inconclusive: 94%. For CCOc1cccc(-c2nn3c(-c4ccco4)nnc3s2)c1, the GTP binding activity was active: 78%. CCOC(=O)C1C(C(=O)NN)C1C(=O)Nc1ccccc1 (configuration not stated) was tested, and the GTP binding activity was inactive: 100%. With Cc1nnc2ccc(-c3ccc(NC(=O)c4ccco4)cc3)nn12 the GTP binding activity was inactive: 84%. For CCOC(=O)CS(=O)(=O)c1ccc(O)cc1, the GTP binding activity was inactive: 96%. For CCCCCCCC(=O)NN1CCOCC1, the GTP binding activity was inconclusive: 96%. With CNc1nc(SC)nc(N(C)C#N)n1 the GTP binding activity was inactive: 95%. In the case of CCN(CC)S(=O)(=O)c1ccc(-c2nnc(SC)o2)cc1, the GTP binding activity is reported as inconclusive: 103%. Cc1ccccc1C(=O)O/N=C(\c1ccccc1)c1ccccn1 was tested, and the GTP binding activity was inconclusive: 104%. In the case of CCCOC(=O)c1c(NC(=O)CCC(=O)O)sc2c1CCCCC2, the GTP binding activity is reported as active: 76%. In the case of N#C/C(=C\Nc1ccccc1O)c1nc2ccccc2o1, the GTP binding activity is reported as inconclusive: 101%. For CCOc1ccc(-c2ccc(SCC(=O)NCC3CCCO3)nn2)cc1 (configuration not stated), the GTP binding activity was inconclusive: 94%. With CN1CCN(CCCNC(=O)c2cn(C3CCCCC3)c(=O)c3c2c2ccccc2n3C)CC1 the GTP binding activity was inconclusive: 103%. O=c1cnnc(Nc2cccc(F)c2)[nH]1 was tested, and the GTP binding activity was inconclusive: 101%. COc1cccc(/C=N/Nc2nn3cnnc3c3ccccc23)c1 was tested, and the GTP binding activity was inconclusive: 58%. In the case of O=C(N/C(=C/c1ccco1)C(=O)N1CCOCC1)c1cccs1, the GTP binding activity is reported as inconclusive: 95%. CN1C(=O)/C(=C\c2cc(Br)cs2)c2ccccc21 was tested, and the GTP binding activity was inconclusive: 92%. In the case of O=C(NCc1ccccc1)C1=C[C@@H](c2ccc(C(F)(F)F)cc2)C[C@@H](OCc2ccc(CO)cc2)O1, the GTP binding activity is reported as inconclusive: 94%. For CCCc1nc2sc3c(=O)n(N)cnc3c2c2c1CCCC2, the GTP binding activity was inconclusive: 100%. With CCS(=O)(=O)N1N=C(c2cccc(NS(C)(=O)=O)c2)CC1c1ccc(C)cc1 (configuration not stated) the GTP binding activity was inconclusive: 124%. For CCc1c(C)nc(Nc2nc(C)c3cc(OC)ccc3n2)[nH]c1=O, the GTP binding activity was inconclusive: 90%. With COc1ccc2oc(=O)c(C(=O)N3CCCC3)cc2c1 the GTP binding activity was inactive: 98%. For CCOC(=O)C1(CC2CCCCO2)CCN(S(=O)(=O)c2cccc(F)c2)CC1 (configuration not stated), the GTP binding activity was inactive: 98%. With Cc1cc(C(=O)NNC(=S)Nc2ccccc2)nn1C the GTP binding activity was inactive: 101%. Cc1ccc(NC(=O)C2=C(c3ccccc3)S(=O)(=O)CCS2(=O)=O)cc1 was tested, and the GTP binding activity was inactive: 84%. With C=C[C@]1(C)C[C@H]1[C@H](NP(=O)(c1ccccc1)c1ccccc1)c1ccccc1 the GTP binding activity was inactive: 102%. O=C(COC(=O)c1cccnc1Cl)NCc1ccco1 was tested, and the GTP binding activity was inactive: 99%. CCN(CC)CCNC(=O)C(=O)NCC1OCCN1S(=O)(=O)c1ccc2c(c1)OCCO2 (configuration not stated) was tested, and the GTP binding activity was inactive: 91%. For Cc1cccc(C2=NNC(=O)C(c3ccc(Cl)cc3)C2)c1 (configuration not stated), the GTP binding activity was inconclusive: 90%. In the case of Cn1c(=O)c2ncn(CC(=O)N=Nc3c(O)[nH]c4ccccc34)c2n(C)c1=O, the GTP binding activity is reported as inconclusive: 90%. COC(=O)c1ccc(COc2ccc(/C=C(\C#N)c3nc4ccccc4[nH]3)cc2OC)o1 was tested, and the GTP binding activity was inactive: 101%. In the case of Cc1cc(C)cc(N=Cc2[nH]c3ccc(Br)c(Cl)c3c2O)c1, the GTP binding activity is reported as inconclusive: 186%. Nc1nc(N2CCN(c3ccc(F)cc3)CC2)n[nH]1 was tested, and the GTP binding activity was inactive: 99%. With Cc1ccc(C(=O)N2CCCC(c3ccc(Cl)cc3)=N2)cc1 the GTP binding activity was inactive: 97%. With O=C1OC(/C(=C\Nc2cc(Cl)ccc2O)[N+](=O)[O-])c2ccccc21 (configuration not stated) the GTP binding activity was inconclusive: 92%. C/C=C/c1ccc(OCC(=O)Nc2ccc(C(N)=O)cc2)c(OC)c1 was tested, and the GTP binding activity was inconclusive: 90%. CCCCN(C(=O)c1cccc2c(=O)c(C)c(-c3ccccc3)oc12)c1ccccc1 was tested, and the GTP binding activity was inactive: 97%. With Cc1ccc(S(=O)(=O)N2CCC(C(=O)Nc3nnc(C45CC6CC(CC(C6)C4)C5)s3)CC2)cc1 the GTP binding activity was inconclusive: 108%. For COc1cccc(CN(C(=O)Cn2nnc(-c3ccccc3F)n2)C(C(=O)NC(C)(C)C)c2ccncc2)c1 (configuration not stated), the GTP binding activity was inactive: 95%. With O=C(CSc1ncnc2c1oc1ccccc12)Nc1ccc2c(c1)OCCO2 the GTP binding activity was inconclusive: 92%. With COC(=O)C1=C(N)Oc2cc(C)n(Cc3cccnc3)c(=O)c2C1c1ccc(OC)c(OC)c1 (configuration not stated) the GTP binding activity was inconclusive: 104%. With Cc1cc(OC(=O)c2c(F)cc(F)cc2F)nc(C)n1 the GTP binding activity was inactive: 92%. Cn1c(SCC(=O)N/N=C/c2ccc([N+](=O)[O-])s2)nnc1-c1ccc(Cl)cc1 was tested, and the GTP binding activity was inactive: 99%. With O=c1c2ccccc2nc2c3ccccc3c3nncn3n12 the GTP binding activity was inconclusive: 81%. With CN1CCN/C1=C(/C(Cl)=C(Cl)Cl)[N+](=O)[O-] the GTP binding activity was inactive: 98%. COc1ccc(OC)c(C2=Nn3c(nnc3-c3ccco3)SC2)c1 was tested, and the GTP binding activity was inconclusive: 93%.
